# According to the supplement of paper PMC11417369:
# The list shows a part of the results.
# System: PF3D7_0420300 AP2 domain 1 (GST-tagged)
# Experiment: gcPBM binding intensity (ln(normalized median fluorescence intensity)); higher = stronger DNA binding
# Outline: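 Plasmodium falciparum DNA-binding domains carrying a GST tag were expressed in E. coli and applied for 1 h, at about 25 μg on average, to an Agilent 4 × 180k array. The array held primer-extended double-stranded 36-bp intergenic genomic probes together with negative controls, and binding took place in 1× PBS with 1% milk, 0.2 mg/ml BSA, 0.5% salmon testes DNA and 0.03% Triton X-100. An Alexa488 anti-GST antibody detected bound protein, and the array was scanned at 488 nm. Binding intensity is taken as the highest Masliner-normalised natural-log median intensity across replicate spots of either probe orientation.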
row,Sequence,gcPBM binding intensity (ln)
1,TTTTATTTATTATTTACACACACGTAGGTGTCCATA [CACACA_site430],9.77
2,TTTTGACATTAATTACTATAGTGTTCTTATAAAATT [TGCATGCA_negctrl_site589],9.33
3,CATTTTATTTTAATATGTACTTAAAGAAAAAAAATT [XGTACX_site7670],8.93
4,AATACATAAAAATAAAAATAAAATATAACTAATATG [CACACA_negctrl_site186],9.5
5,TTATACATATATTTAACACACATTTTATAAAGTGCC [CACACA_site1314],9.29
6,AATCGATAAAATGTTGTGCACATATTTTTATATTTA [GTGCAC_site9651],9.26
7,AAAACTATAATGAATAGTACATAAAAATGGATATAT [XGTACX_site6056],9.52
8,TAAAAAAAAAAAAAAGTACACACTTATAAAATATTA [CACACA_site872],9.23
9,ATATATTTTTTGAATACACACATATTATATGTAATA [CACACA_site1256],9.38
10,ACAAATGAGATTATATGTACACATAACAAATTTACA [XGTACX_site3496],9.41
11,AAATGTAAAATTTTATGTACATATATTTATATAATA [XGTACX_site3737],9.1
12,GTTACACCAACAAACACACACACACCGACACCCAAA [CACACA_site5361],10.1
13,TTTATTTATTTAATTACACACGAACATATAACCATT [CACACA_site7952],9.37
14,ATGTTTTATAAAAGGCGTACACATATATTTAAGTAA [XGTACX_site6231],9.36
15,TTCATTCTATAAAACACACAAATATTTTTGTATCCC [CACACA_site6458],9.2
16,TTTTGTGATCTTACCACCTTTCATAATATTAATAAA [GTGCAC_negctrl_site360],9.25
17,ATAGAACAATTCAGAAGTACATAAAAAGAAAAATTT [XGTACX_site3015],9.35
18,TTGGATGATTAAGGGGGACACACGTTTATATATTTA [CACACA_site338],9.64
19,ATATATTTTAATGATACACACAAGAAATAAAATTAC [CACACA_site5671],9.6
20,ACTTTTTTAATGTTACGTACACATAAATAATAATTA [XGTACX_site8092],9.23
21,TTTCACAAATGATATAGTACTTTTTATTATTAACAT [XGTACX_site7976],9.17
22,GTTATTAAAAACGGGTGTACACATATATAAATATAT [XGTACX_site1234],9.38

row,Sequence,gcPBM binding intensity (ln)
1,TATTTATTATAAAAATTGTATAAAATAATAATGCTC [GTGCAC_negctrl_site456],9.18
2,AAATTGGGGCTTGTTACACACTTAGTGTGAGTTCTA [CACACA_site6417],9.53
3,ATTTATAATATGTATACACACACATATATAAATATA [CACACA_site8729],9.59
4,TTCTCATCCTTACATACACACACATATATATATATA [CACACA_site7914],9.98
5,TATAATCATAAATACACACACATATATATATATATA [CACACA_site5224],9.54
6,GTTCAATTATTTTTATGTACATATATTTTTTTCTTT [XGTACX_site2505],9.66
7,TATACATAGATATATACACACATATATTTATATACA [CACACA_site6328],9.55
8,ATTACAAAAAAAAAAAAAAAAAAAAAAAAAAAAAAA [CACACA_negctrl_site448],8.6
9,ATATGTATATATATTTGTACGTAAAATGAAATCTAA [XGTACX_site213],9.28
10,ATTTCACAGAAACACACACACAATATATTTCCTTTT [CACACA_site3904],9.87
11,GAAAAATGAAGAGAACAAAATTTTATGATATATATA [GTGCAC_negctrl_site231],9.19
12,CCTTGAACCCCACTAACACACACACCCACGCTCAGA [CACACA_site8976],9.84
13,TTTCATAAATAAATATGTACATAATTAATAATAAAT [XGTACX_site5882],9.07
14,AAGAAAATTAAATTAACACACATAAATATGTAAATA [CACACA_site6882],9.42
15,CCAATAATATATAGAAGTACAGAAAAAAAAAAAAAA [XGTACX_site2049],9.07
16,CCCTCTTCTCTCATATCACACATGTCATCCTTATCC [CACACA_site5078],9.55
17,GCACGCTGTATGAATGCACACATTCATAGAATTGCT [CACACA_site8852],9.22
18,ATCAAAATGTTAAAGATACACACCTAACAAACACAA [CACACA_site955],9.7
19,TTATATATATAGAAGTGTACAAAATTTCCTAGACCT [XGTACX_site3900],9.39
20,TATAAATATTTATAAACACACAAATATATATATTTA [CACACA_site27],9.35
21,TATCGACATTTCATTTGTACATATATACATATATTT [XGTACX_site3346],9.4
22,AAATAGTATATAATATGTACATACATAAAAATGTAT [XGTACX_site3524],9.2

row,Sequence,gcPBM binding intensity (ln)
1,ACCTATGTATATTATACACACTCCAAACTATTATTT [CACACA_site1817],9.63
2,AAAGGTAAGCAGAATAGTACAGAAGAAAAAATATTT [XGTACX_site2941],9.61
3,TTTTGTTTGTTCGTGACTACATTATGTTGTAAATAC [CACACA_negctrl_site604],9.3
4,CAACATTTGAGACACACACACATACAAACAAACAAA [CACACA_site7538],10
5,ATCAAAAAAAAAAAATTTTTTTTTTTGTTTGTTTCC [CACACA_negctrl_site1042],8.99
6,TATCCTATAAATAATACATGCATATATATATATATT [TGCATGCA_site638],9.14
7,TTAAGAAGTTCTAAATGTACATACATAACCACGTTA [XGTACX_site7514],9.07
8,ATAATATTTTCTTCTTATTGAATGCTTTAAATTTAC [CACACA_negctrl_site1273],9.24
9,GGGAAATATTGAAACACACACGAACGCACGTATTTC [CACACA_site6258],9.54
10,TTAAACCGTGGGAGCACACACACACCCCCACCCATA [CACACA_site331],10.2
11,ACAAATAAGTTTTGTAGTACTGTGTATATATATATA [XGTACX_site6901],9.28
12,TAATGAAATATACAGAGTACATTCTGTATATAGGAT [XGTACX_site7691],9.35
13,GCATAAGAAAATAATTGTACAATTTACATACATAAA [XGTACX_site8286],9.25
14,TATATATGTATATATATAAATATATATATATATATA [TGCATGCA_negctrl_site605],8.87
15,TACTCAAAAATTAATTAGCATAATATATATAAAAAT [GTGCAC_negctrl_site613],9.17
16,TATAAATATATATACACACACACATTAATACATATA [CACACA_site3488],10.2
17,TTGTACGCAAAAAAAAAAAAAAAAAAATTAAAATTT [TGCATGCA_negctrl_site586],8.63
18,TTTTTCTCTTTAAGGTGTACAATAATACAGTAACCA [XGTACX_site300],8.9
19,ATATTAGTAACACAGACACACAAAAAAAAAAAAAAA [CACACA_site2176],9.02
20,AGGAAAATACCTTAATGTACATAGAAAAGTAACATT [XGTACX_site8011],9.33
21,TTTTTTATTATCAAAACATGCATTTTTTAAATGGAA [TGCATGCA_site557],8.76
22,CACTTAACACAAGAGTGTACACATATATATATATAT [XGTACX_site686],9.33

row,Sequence,gcPBM binding intensity (ln)
1,GTTATTGAAAAAATAGTGCAATATAACAAAGTAAAA,9.41
2,AAATAAAACAAACACACACACACATACACAAAAAAA [CACACA_site3849],10.2
3,TAATTTCTTATGTATTGTACAAATAATATATGATAT [XGTACX_site611],9.1
4,TATATATATATATGTACACACATATATACCTTTCAT [CACACA_site2679],9.38
5,TATATATTTCGGTGTGCACACTTTTTATTTTTATCC [CACACA_site1726],9.82
6,GGAATGTAGGGTTTTACCAAAATAAAAATAACCATA [XGTACX_negctrl_site492],9.19
7,ATAAAATACCTATAAACACACATATAAACAGACATA [CACACA_site7213],10
8,AATATATACAATATATGTACATATATATACACATAT [XGTACX_site4190],9.33
9,CTTTTATTAAAATTCACACACATAAACTTTTATAAA [CACACA_site7027],9.25
10,ACAATAAAAATTTATGCATGTGAATTGAAAAAAAAA [TGCATGCA_site1037],9.13
11,CTTATATATATATCATGTACTTATGTATTTAAGAAT [XGTACX_site3307],9.12
12,TTTATTGACAATTTATGTACATATAATTGAAAAATA [XGTACX_site6634],8.9
13,TTTGTGATATTATATTGTACCCTATATTTATTATAA [XGTACX_site4240],9.56
14,GAATGGACGTTAGGGGGTACGTATAAAATTTATCAA [XGTACX_site683],9.48
15,TCACCTATTTTTAACTGTACTGAAATGATATATATA [XGTACX_site1366],9.31
16,TAATGAAATTGTAGTAGTACCTTCTTATAAATAAAA [XGTACX_site6747],8.88
17,TATAAAAAAAAAAAATATATATATATATAAATATAA [TGCATGCA_negctrl_site367],8.98
18,TAAGAAAAAAAAAAAAAAAAAAAAAAAAAAAAAAAA [CACACA_negctrl_site760],8.53
19,TAAAAATATTTTCATTGTACATATATATAAATATAT [XGTACX_site1123],9.01
20,ATTTGTTACGGACATGCATGCGAATCAGGGTATATA [TGCATGCA_site154],9.41
21,TACATATATATATATATATATATATATATCATTATG [XGTACX_negctrl_site293],9.04
22,TTGAGGAAATAACAGTGTACAAACAAATTATTACCA [XGTACX_site7082],9.4
